# Paper PMC12040169 (PLOS Biology, 2025)
# The list shows a part of the results.
# Tested on: T1, C. trachomatis L2/434/Bu expressing GFP (CTL2-GFP)
# T1 construct: L2/434/Bu GFP intracellular growth in HeLa cells
# Set-up: species or system HeLa; C. trachomatis total inclusion area by high-content imaging, normalised to DMSO
# Conditions: total inclusion area; 28.5 h, 10 µM; inhibitor
# In short: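 Bulk GFP and resorufin signals were read first. Wells were then fixed, stained with Hoechst and imaged to detect GFP inclusions and host nuclei. MICs followed the previously described calculation.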
row,Structure (SMILES),% of control remaining
1,Cc1ccc(NS(=O)(=O)c2cc(C(=O)N3CCN(C)CC3)ccc2C)cc1C [CBK269268],112.09
2,O=C(Nc1nnc(-c2ccc3c(c2)OCCO3)o1)c1ccccc1F [CBK287405],115.064
3,COc1cccc(CNC(=O)CCc2nc3ccccc3[nH]2)c1 [CBK288003],103.694
4,Nc1ccc2ccc(-c3ccncc3)nc2n1 [CBK067622],97.3403
5,CN(C)c1nc(N2CCN(c3ccc(F)cc3)CC2)cc(C(F)(F)F)n1 [CBK007432],72.2231
6,CCC(=O)Nc1ccc(-c2csc(N3CCCC(C)C3)n2)cc1 (stereo not drawn) [CBK306478],75.2266
7,O=C(CC1Oc2ccccc2NC1=O)Nc1ccc2c(c1)CN(Cc1ccccc1)C2 (stereo not drawn) [CBK285991],111.314
8,NS(=O)(=O)c1ccc(NC(=O)CCCN2C(=O)/C(=C/c3ccc(Cl)cc3)SC2=S)cc1 [CBK261302],99.4206
9,CN(C)c1ccc(/C=C/CN2CCN(c3ccc([N+](=O)[O-])cc3)CC2)cc1 [CBK261904],100.45
10,COC(=O)c1sc2cc(C(F)(F)F)cnc2c1-c1cccnc1 [CBK089885],101.304
11,CCOc1ccc(C(=O)NC(=S)Nc2sc(C)c(C)c2C#N)cc1Cl [CBK268900],87.9387
12,CN1CCOC(CNc2nc(-c3ccncc3)nc3c2CCC3)C1 (stereo not drawn) [CBK304890],16.1524
13,O=C(c1cccs1)N1CCCC1c1nc2ccccc2[nH]1 (stereo not drawn) [CBK284006],97.0384
14,COc1cc(/C=C2\SC(=S)N(Cc3cccnc3)C2=O)ccc1OCc1cccc2ccccc12 [CBK264624],91.216
15,COc1ccc(C(C)c2cc3c(cc2OCCO)OCO3)c(F)c1 (stereo not drawn) [CBK200111],28.8401
16,CSc1nc(C(=O)N2CCCCC2c2cccc(F)c2)cs1 (stereo not drawn) [CBK306732],58.2725
17,CSc1ccccc1C(=O)Nc1sc2c(c1C#N)CCN(C(C)=O)C2 [CBK304183],8.741
18,Cn1ccnc1C(NC(=O)N1CCOc2ccc(Cl)cc2C1)C1CC1 (stereo not drawn) [CBK307212],51.397
19,Cl/C(=C\c1ccccc1)CN1CCOCC1 [CBK261892],86.5471
20,O=C(NCCCN1CCOCC1)/C(=N\O)c1ccccn1 [CBK288366],64.3332
21,Cc1cc(C(=O)N2CCC(F)CC2)n[nH]1 [CBK200277],98.6504
22,COc1ccc(C(=O)CSc2nnc(-c3ccccc3)c3ccccc23)cc1OC [CBK297088],93.7288
23,CCc1cc(=O)[nH]c(-c2ccc(N3CCCC3C(=O)N(C)C)nc2)n1 (stereo not drawn) [CBK304197],89.9964
24,O=C(O)CCCNC(=O)COc1ccccc1OCC(=O)NCCCC(=O)O [CBK296089],101.033
25,CCN1C(=O)CC2(C1=O)C(=O)N(Cc1nnc(-c3ccc(C)cc3)o1)c1ccc(OC)cc12 (stereo not drawn) [CBK075586],89.8144
26,O=C(O)c1cccc(NS(=O)(=O)c2ccc(Br)cc2C(F)(F)F)c1 [CBK155724],87.5775

row,Structure (SMILES),% of control remaining
1,O=C(COc1ccc([N+](=O)[O-])cc1)Nc1ccc(CN2CCCCC2)cc1 [CBK266204],127.159
2,COC(=O)Cn1cc(CN2CC3CCCN3C[C@H]2C)c2ccccc21 (stereo partly drawn) [CBK285436],108.084
3,COc1cccc(CNCCO)c1OCc1ccccc1F [CBK266594C],80.223
4,COc1cccc(CN2CCN(C(=O)N3CCCCC3)[C@@H](C)C2)c1 [CBK284266],66.2292
5,O=C(c1cncnc1)N1CCC2(CCCNC2)C1 (stereo not drawn) [CBK153237C],100.405
6,Nc1ncc(-c2ccc(F)cc2)c(C2CCCN(C(=O)CCc3ccc(F)cc3)C2)n1 (stereo not drawn) [CBK286092],98.6874
7,O=[N+]([O-])c1ccc(-c2nc3ccc(Br)cn3[n+]2[O-])cc1 [CBK262335],102.695
8,CCn1c(N2CCC(C(=O)NC3CC3)CC2)nc2ccccc21 [CBK283922],92.285
9,CC(=O)Nc1ccc(N2C(=O)CC(NCCCN3CCOCC3)C2=O)cc1 (stereo not drawn) [CBK265236],105.857
10,O=C(Nc1ccc(S(=O)(=O)Nc2ccc(Cl)cc2)cc1)c1ccc(Cn2cc(Br)cn2)o1 [CBK265764],57.6321
11,Nc1ncc(-c2ccco2)nc1N1CCC(C(=O)O)CC1 [CBK063440],94.5014
12,COCC(=O)NC(Cc1ccsc1)c1nc(C)cs1 (stereo not drawn) [CBK282804],76.807
13,OCCN1CCN(c2nc(-c3ccc4c(c3)OCO4)cn3ccnc23)CC1 [CBK037443],89.951
14,Cc1ccc(CN[C@@H]2CCC(=O)N[C@H]2c2cc(F)cc(F)c2)o1 [CBK283128],94.9452
15,CC(C)(C)NC(=O)C[C@@H]1CCNC[C@@H]1Cc1cc(-c2ccc(F)cc2)on1 [CBK288802],89.4707
16,Cc1cc(C)n(CC(=O)N2CCC(Nc3cccnn3)CC2)n1 [CBK306234],58.8857
17,Cc1c(C(=O)NC2(c3ccc(F)cc3)CCCC2)cnn1C [CBK283978],91.9002
18,Nc1cc2cccnc2c(-c2cccc(C(F)(F)F)c2)n1 [CBK081177],103.682
19,Cc1ccc(CO)cc1NC(=O)[C@@H]1CN(Cc2ccccc2)C[C@H]1C(=O)c1ccc(F)cc1 [CBK286431],79.6649
20,CCCC/C=C/c1cnc(N)c(Nc2ccc3[nH]ccc3c2)n1 [CBK063811],134.987
21,COc1ccc2c(ccn2CC(=O)NC[C@H]2CC[C@H](C(=O)O)CC2)c1 [CBK286687],37.6824
22,CCn1nc2c(C)cc3cc(OC)ccc3n2c1=O [CBK283823],70.6629
23,COc1cccc(CCN2CCC(C(=O)NC(C)c3cccc4ccccc34)CC2)c1 (stereo not drawn) [CBK148650],73.1164
24,Cc1nnc2n1CCN(CC1CCCCO1)C2 (stereo not drawn) [CBK304267],55.619
25,Cc1ccc2cc(CN(Cc3ccccc3)C(=O)NCc3c(Cl)cccc3Cl)c(=O)[nH]c2c1C [CBK132088],96.8828
